Reference: the supplement of paper PMC8285479
Where a name gives a salt, the structure may show the parent alone. ± gives the standard deviation of the averaged measurements. Whole data set: some 1,900 compounds, median “normalised cell viability (NPI; 0 = phenylarsine oxide control, 1 = DMSO control)” near 1, cut for the lowest 2% near 0.039. The list shows a part of the results.

Tested on: NCI-H1944
Assay: normalised cell viability (NPI; 0 = phenylarsine oxide control, 1 = DMSO control) (fraction of DMSO control); NCI-H1944 is a non-small cell lung cancer line; higher = more viable cells (less compound toxicity)
Conditions: 6 days
[1] = glucocorticoid arm: hydrocortisone 2.75 uM co-treatment, compound 1 µM
[2] = glucocorticoid arm: hydrocortisone 2.75 uM co-treatment, compound 5 µM
[3] = glucocorticoid arm: hydrocortisone 2.75 uM pre-treated 2 days and continued, compound 1 µM
[4] = glucocorticoid arm: hydrocortisone 2.75 uM pre-treated 2 days and continued, compound 5 µM
[5] = glucocorticoid arm: vehicle, compound 1 µM
[6] = glucocorticoid arm: vehicle, compound 5 µM
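Note: CTB read-out in 384-well plates, mean of triplicate wells, normalised per plate against 1 µM phenylarsine oxide and 0.1% DMSO, compounds added 24 h after seeding.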

| SMILES | normalised cell viability [1] | normalised cell viability [2] | normalised cell viability [3] | normalised cell viability [4] | normalised cell viability [5] | normalised cell viability [6] |
| --- | --- | --- | --- | --- | --- | --- |
| Cc1ccc(C(=O)Nc2cccc(C(F)(F)F)c2)cc1Nc1nc(-c2cccnc2)nc2c1cnn2C | 0.991 ± 0.018 | 1.04 ± 0.021 | 1.06 ± 0.011 | 1.06 ± 0.01 | 0.783 ± 0.051 | 0.833 ± 0.04 |
| O=C(O)CCCN1CCC(O[C@@H](c2ccc(Cl)cc2)c2ccccn2)CC1 [Bepotastine Besilate] | 1.03 ± 0.015 | 1.02 ± 0.011 | 1.03 ± 0.015 | 1.04 ± 0.017 | 1.017 ± 0.0058 | 1 ± 0.018 |
| CN(C(=O)CCCOc1ccc2[nH]c(=O)ccc2c1)C1CCCCC1 [Cilostamide] | 1 ± 0.014 | 1.02 ± 0.025 | 0.9953 ± 0.0081 | 1.005 ± 0.0071 | 1.013 ± 0.0058 | 1.03 ± 0.01 |
| O=C(O)c1cc2cc(F)ccc2[nH]1 [5-Fluoroindole-2-carboxylic acid] | 1.003 ± 0.0061 | 1.01 ± 0.028 | 1.01 ± 0.021 | 1.02 ± 0.021 | 1.001 ± 0.0083 | 1.01 ± 0.01 |
| CN1CCN(c2ccc3nc(-c4c(N)c5c(F)cccc5[nH]c4=O)[nH]c3c2)CC1 [Dovitinib (TKI-258)] | 0.888 ± 0.0072 | 0.693 ± 0.049 | 0.9123 ± 0.0049 | 0.865 ± 0.029 | 0.781 ± 0.018 | 0.508 ± 0.021 |
| CN1CCN(c2ccc3nc(-c4c(N)c5c(F)cccc5[nH]c4=O)[nH]c3c2)CC1 [Dovitinib Dilactic acid (TKI258 Dilactic acid)] | 0.757 ± 0.01 | 0.588 ± 0.0072 | 0.9273 ± 0.0055 | 0.81 ± 0.042 | 0.359 ± 0.0061 | 0.19 ± 0.018 |
| N[C@@H](COP(=O)(O)O)C(=O)O [O-Phospho-L-serine] | 1.013 ± 0.0058 | 1.01 ± 0.015 | 1.017 ± 0.0058 | 1.05 ± 0.093 | 0.9993 ± 0.0097 | 1.01 ± 0.013 |
| CCCCc1oc2ccccc2c1C(=O)c1cc(I)c(OCCN(CC)CC)c(I)c1 [Amiodarone hydrochloride] | 0.981 ± 0.0085 | 0.387 ± 0.12 | 1.005 ± 0.0087 | 0.892 ± 0.031 | 1.01 ± 0.013 | 0.151 ± 0.12 |
| CCc1ccc(OCc2ccccc2C(=O)Nc2ccc3nc(C)cc(N)c3c2)cc1 | 1.04 ± 0.011 | 0.00134 ± 0.00041 | 1.05 ± 0.017 | 0.00123 ± 0.00019 | 1.023 ± 0.0058 | 0.00113 ± 0.0006 |
| CN(C)CCc1c[nH]c2ccc(CS(=O)(=O)N3CCCC3)cc12 [Almotriptan Malate] | 1.02 ± 0.017 | 1.03 ± 0.01 | 1.023 ± 0.0058 | 1.023 ± 0.0058 | 1.013 ± 0.0058 | 1.003 ± 0.0058 |
| CN1CCN2c3ccccc3Cc3ccccc3C2C1 (stereo not given) [Mianserin hydrochloride] | 1 ± 0.0095 | 0.963 ± 0.015 | 0.9977 ± 0.0025 | 1.03 ± 0.068 | 0.9717 ± 0.0085 | 0.982 ± 0.011 |
| CN1CCN2c3ccccc3Cc3ccccc3C2C1 (stereo not given) [Mianserin HCl] | 1 ± 0.018 | 1.02 ± 0.024 | 0.997 ± 0.015 | 1.02 ± 0.018 | 0.9983 ± 0.0021 | 0.9877 ± 0.0059 |
| CN1CCCN(C(=O)c2cccc(-c3ccc(/C=C4/C(=O)Nc5ccc(Cl)cc54)o3)c2)CC1 | 0.717 ± 0.032 | 0.214 ± 0.24 | 0.937 ± 0.021 | 0.887 ± 0.059 | 0.282 ± 0.017 | 0.00113 ± 0.00047 |
| CCCCCCCCOc1ccccc1C(=O)Nc1ccc(C(=O)OCC[N+](C)(CC)CC)cc1 [Otilonium Bromide] | 1.03 ± 0.01 | 1.03 ± 0.026 | 1.01 ± 0.026 | 1.03 ± 0.025 | 1.007 ± 0.0058 | 1.003 ± 0.0058 |
| N[C@@H](Cc1ccc(O)c(O)c1)C(=O)O [L-3,4-Dihydroxyphenylalanine] | 0.9983 ± 0.0021 | 0.97 ± 0.018 | 0.9913 ± 0.0074 | 0.971 ± 0.0087 | 0.9813 ± 0.0031 | 0.9793 ± 0.0055 |
| O=C1c2c(O)ccc(O)c2C(=O)c2c(NCCNCCO)ccc(NCCNCCO)c21 [Mitoxantrone dihydrochloride] | 0.00888 ± 0.0019 | 0.00352 ± 0.00052 | 0.145 ± 0.013 | 0.155 ± 0.0095 | 0.00324 ± 0.00091 | 0.00617 ± 0.003 |
| O=C1c2c(O)ccc(O)c2C(=O)c2c(NCCNCCO)ccc(NCCNCCO)c21 [Mitoxantrone; Mitoxantrone dihydrochloride] | 0.181 ± 0.0045 | 0.00493 ± 0.00072 | 0.65 ± 0.012 | 0.0166 ± 0.0015 | 0.0328 ± 0.004 | 0.00403 ± 0.00087 |
| CCOC(=O)C1=C(C)NC(C)=C(C(=O)OC)C1c1cccc(Cl)c1Cl (stereo not given) [Felodipine] | 0.983 ± 0.026 | 0.938 ± 0.03 | 0.9947 ± 0.0047 | 0.916 ± 0.02 | 0.9823 ± 0.0091 | 0.9913 ± 0.0025 |
| Cc1nc2sccn2c(=O)c1CCN1CCC(=C(c2ccc(F)cc2)c2ccc(F)cc2)CC1 [Ritanserin] | 1 ± 0.013 | 1 ± 0.017 | 1.03 ± 0.032 | 1.02 ± 0.011 | 1.005 ± 0.0081 | 1.007 ± 0.0058 |
| CCCCCCCCCCCCCCCc1cccc(O)c1C(=O)O [Anacardic acid] | 1 ± 0.015 | 1.02 ± 0.0063 | 1.01 ± 0.012 | 1.02 ± 0.022 | 1 ± 0.024 | 1.01 ± 0.019 |
| C[N+](C)(C)CCOC(N)=O [Carbachol] | 1.01 ± 0.011 | 1.02 ± 0.011 | 1.01 ± 0.01 | 1.01 ± 0.039 | 0.9927 ± 0.0055 | 0.9937 ± 0.0071 |
| CCN1C(=O)C=CC1=O [N-Ethylmaleimide] | 1.02 ± 0.01 | 1.01 ± 0.01 | 1 ± 0.02 | 1.01 ± 0.011 | 0.99 ± 0.0044 | 0.9893 ± 0.0055 |
| COc1cc(Nc2ncc3c(n2)-c2ccc(Cl)cc2C(c2c(F)cccc2OC)=NC3)ccc1C(=O)O [MLN8237 (Alisertib)] | 0.888 ± 0.0036 | 0.992 ± 0.027 | 0.943 ± 0.025 | 0.965 ± 0.022 | 0.509 ± 0.025 | 0.955 ± 0.01 |
| COc1cc(Nc2ncc3c(n2)-c2ccc(Cl)cc2C(c2c(F)cccc2OC)=NC3)ccc1C(=O)O [Alisertib (MLN8237)] | 0.962 ± 0.024 | 0.982 ± 0.012 | 0.942 ± 0.063 | 0.995 ± 0.027 | 0.996 ± 0.017 | 0.903 ± 0.018 |
| Cc1ccc(Nc2nccc(N(C)c3ccc4c(C)n(C)nc4c3)n2)cc1S(N)(=O)=O [Pazopanib] | 1.05 ± 0.01 | 1.12 ± 0.015 | 1.043 ± 0.0058 | 1.06 ± 0.015 | 1.02 | 1.03 ± 0.01 |
